Measurements as given in PubChem BioAssay AID1671194 (National Center for Advancing Translational Sciences (NCATS), 2021).
The campaign covered roughly 140,000 compounds. About 240 (0.17%) were called active. The inconclusive results got no clear call from the source; some entries with a clear call stand among them for comparison. Calls follow the shape of the dose curve; as a rule, active = well fitted inhibition curve with a large enough effect; inconclusive = small, poorly fitted or top-dose-only effect; inactive = no such curve, though single readings can be large or run the other way. Where the call is inconclusive, the potency comes from a doubtful curve fit.

Assay: Primary qHTS assay for inhibitors of alpha-synuclein gene (SNCA) expression; also: nearly all actives have a fitted effect of over 45% in size
Conditions: HEK-293 SNCA-luciferase knock-in, luminescence, 24 h; series mostly up to 57.2 µM
Potency is read from the fitted curve at half-maximal effect; tags tell the direction and shape of the fitted curve.

Structure (SMILES)	Potency
c1ccc2c(CCNc3ccc(Nc4ccncc4)cc3)c[nH]c2c1	inconclusive: 34.1 µM [inhibitor, single point]
CC(C)(C)OC(=O)N1CC(NCc2cccc(F)c2)C1	inconclusive: 7.94 µM [inhibitor, full curve]
Cc1ccc(C(=O)N2CCN(C(=O)c3nnn4c3COC(c3ccc(C)cc3)C4)CC2)cc1 (stereo unspecified)	inconclusive: 20 µM [inhibitor, single point]
CC(NC(=O)c1cc(-c2ccc(F)cc2)cn1C)c1ccccn1 (stereo unspecified)	inactive
COc1ccc(OC)c(NS(=O)(=O)c2ccc(-n3cccn3)cc2)c1	inconclusive: 25.1 µM [inhibitor, single point]
CC(C)c1ccc(OCC(=O)c2ccc3c(c2)N(CCCC(=O)N2CCOCC2)C(=O)CO3)cc1	inactive
CC(C)CS(=O)(=O)N[C@H](C)c1onc(-c2cccnc2)c1C(=O)O	inconclusive: 7.08 µM [inhibitor, full curve]
COCCNC(=O)[C@H]1C[C@H](Oc2cccnc2)CN1C(=O)NCc1ccc(C)cc1	inconclusive: 39.8 µM [inhibitor, single point]
O=C(c1ccn[nH]1)N1CCC(N2C(=O)C3(CCCC3)C2c2ccccc2)CC1 (stereo unspecified)	inconclusive: 20 µM [inhibitor, partial curve, poor fit]
Cc1cccc(NC(=O)Cn2c(-c3cnccn3)nc(C)c(C)c2=O)c1C	inactive
COc1ccc2c(Oc3ccc(NC(=O)c4c(C)n(CC(C)(C)O)n(-c5ccccc5)c4=O)nc3)ccnc2c1	inconclusive: 4.29 µM [inhibitor, full curve]
COc1c(C)cnc(Cn2cnc3c(Cl)nc(N)nc32)c1C	inconclusive: 0.152 µM [inhibitor, full curve]
O=[S+]([O-])(c1cccc(C(F)(F)F)c1)N1CCC2(CCN(Cc3cccs3)c3ccccc3O2)CC1	inactive
COc1ccc(CCNC(=O)c2c(C)noc2-c2ccccc2OC)cc1OC	inactive
CS(=O)(=O)NCCc1ccc(CC2CCN(C(=O)COc3ccc(F)cc3)CC2)cc1	inconclusive: 1.58 µM [inhibitor, full curve, poor fit]
CCOc1ccc(CNC(=O)C2CCN(c3nnc(-n4c(C)ccc4C)s3)CC2)cc1	inconclusive: 39.8 µM [inhibitor, single point]
CN(C/C=C/c1ccccc1)c1cc(C2CC(O)C2)nc(N)n1 (stereo unspecified)	inconclusive: 39.8 µM [inhibitor, single point]
CC(C)c1noc(-c2ccn3c(CNC(=O)c4ccc(N(C)C)cc4)nnc3c2)n1	inactive
Cc1cc(C)cc(C(=O)N2CCN(c3cc(-c4ccccc4)[nH]n3)CC2)c1	inconclusive: 39.8 µM [inhibitor, single point]
CS(=O)(=O)N1C[C@H]2CCN(C(=O)c3ccc(F)cc3Cl)C[C@H]21	inconclusive: 39.8 µM [inhibitor, single point]
COc1ccc(-c2[nH]nc3ncc(-c4ccccc4F)nc23)c(C)c1	inactive
O=C(NCc1ccccc1)C(=O)NCC(c1ccco1)S(=O)(=O)c1ccc(Cl)cc1 (stereo unspecified)	inconclusive: 39.8 µM [inhibitor, single point]

Structure (SMILES)	Potency
COc1cccc(Cn2c(=O)n(-c3cccc(Cl)c3)c(=O)c3c4c(sc32)CN(C(C)=O)CC4)c1	inconclusive: 28.2 µM [inhibitor, single point]
CNC(=O)CCn1ncc2cc(OCc3ccccc3-c3cc(F)ccc3C)ccc21	inconclusive: 56.2 µM [inhibitor, single point]
CCOc1ccc(NC(=O)CN2CCN(S(=O)(=O)c3ccc(OC)cc3)CC2)cc1	inconclusive: 1 µM [inhibitor, full curve]
Cc1ccccc1Nc1nn2c(=O)c3ccc(C(=O)NCc4ccccc4)cc3nc2s1	inconclusive: 2.51 µM [inhibitor, single point]
Cc1cccc(NC(=O)N2CCc3nnc(C4CC4)n3CC2)c1	inconclusive: 39.8 µM [inhibitor, single point]
CC=CC(=O)N(CC)c1ccccc1C	inactive
COCC(=O)NC1CCC12CCN(C(=O)Nc1ccc3c(c1)OCCO3)CC2 (stereo unspecified)	inactive
O=C(c1n[nH]c(=O)c2ccccc12)N1CCCC1c1nc(CCOCC2CC2)no1 (stereo unspecified)	inactive
CC(C)CCN1CCC2(CC1)C(=NC1CCCC1)NC(=O)N2c1cc(F)cc(F)c1	inactive
CC(=O)C1=C(c2ccccc2)N(C(C)=O)n2c(nnc2C2CCCCC2)S1	inconclusive: 28.2 µM [inhibitor, single point]
CSc1ncc(Cl)c(C(=O)Nc2ccc(S(=O)(=O)Nc3nccc(C)n3)cc2)n1	inconclusive: 39.8 µM [inhibitor, single point]
O=C(c1cnn2c1CN([S+](=O)([O-])c1cccc(C(F)(F)F)c1)CC2)N1CCOCC1	inconclusive: 3.55 µM [inhibitor, partial curve, poor fit]
CCOCCCNC(=O)c1noc(-c2ccc[nH]c2=O)n1	inconclusive: 39.8 µM [inhibitor, single point]
Cc1cccc(NC(=O)CN2C(=O)C(c3ccccc3)=NC23CCC(C)CC3)c1 (stereo unspecified)	inconclusive: 39.8 µM [inhibitor, single point]
CC(=O)N(C)CCc1noc(C2CN(C(=O)c3c(C)noc3C)C2)n1	inactive
Cc1cccc(-c2nc3ccc(C(=O)NC4CC4)cc3o2)n1	inconclusive: 39.8 µM [inhibitor, single point]
COCC(=O)N1CCC(=O)N(CCC#N)C[C@H]2CN(C)c3ccccc3[C@@H]21	inactive
O=C(Nc1ccc2c(c1)OCCO2)N1CCC(Cc2nncn2-c2ccccc2)CC1	inactive
CCOC(=O)c1c(C)[nH]c(C)c1S(=O)(=O)N1CCC(C(=O)Nc2cc(C)ccn2)CC1	inconclusive: 14.1 µM [inhibitor, single point]
Cc1cccc(N2CCN(C(=O)CS(=O)(=O)c3cccc4nsnc34)CC2)c1C	inconclusive: 7.08 µM [inhibitor, single point]
O=C(c1ccoc1)N1CCC2(CCCCO2)CC1	inactive
Cc1ccc(S(=O)(=O)C2(C(=O)Nc3ccc(Cl)c(C(F)(F)F)c3)CC2)cc1	inconclusive: 39.8 µM [inhibitor, single point]

Structure (SMILES)	Potency
Cc1nc(CC2CCN(C(=O)c3ccccc3)CC2)n[nH]1	inconclusive: 39.8 µM [inhibitor, single point]
COc1ccc(OC)c(C(=O)CC2(O)C(=O)N(Cc3ccccc3C)c3ccccc32)c1 (stereo unspecified)	inconclusive: 1.26 µM [inhibitor, full curve, poor fit]
CC(C)CCN1CCC2(CC1)CC(=O)Nc1ccccc1O2	inactive
OC1CCN(c2cc(N3CCOC(c4ccc(F)cc4)C3)ncn2)CC1 (stereo unspecified)	inactive
CC1=C[C@@H](CNC(=O)C(C)(C)C)[C@H](C(C)C)C[C@H]1CC(=O)N(C)Cc1cccnc1	inconclusive: 25.1 µM [inhibitor, single point]
Cc1c(C(=O)N2CCOCC2)oc2c1-c1nn(CC(=O)NCc3cccc(F)c3)cc1CC2	inconclusive: 7.08 µM [inhibitor, single point]
CCN1C(=O)C2(CCN(S(=O)(=O)c3ccc(Cl)cc3C)CC2)c2ccccc21	inconclusive: 22.4 µM [inhibitor, partial curve]
Oc1ccc(-c2ccc(-c3cc(Nc4cccc(CNC5CC5)c4)n[nH]3)cc2)c(O)c1	inconclusive: 13.6 µM [inhibitor, partial curve, poor fit]
COCCNC(=O)[C@@H]1Cc2cn(Cc3ccccn3)c3cccc(c23)[C@H](CC(C)C)N1	inconclusive: 39.8 µM [inhibitor, partial curve]
CC1(CNc2ccccc2)COc2ccc(C(=O)NCc3cccnc3)cc2N1 (stereo unspecified)	inactive
O=C(NCc1cccc(Cl)c1)C1CCCN1c1nccc(Nc2ccccc2F)n1 (stereo unspecified)	inconclusive: 7.08 µM [inhibitor, single point]
CNC(=O)N1CCC(C2CCN(Cc3ccc(Br)o3)C2)CC1 (stereo unspecified)	inactive
O=C(NCc1ccccc1)N1CCCCC1c1nc(-c2cnccn2)n[nH]1 (stereo unspecified)	inconclusive: 3.16 µM [inhibitor, single point]
O=C(NCc1ccc(Cl)cc1)[C@@H]1Cc2nc[nH]c2CN1Cc1ccc(Cl)cc1	inconclusive: 56.2 µM [inhibitor, single point]
O=C(NC1CCOC2(CCOCC2)C1)c1csc(Cc2ccccc2)n1 (stereo unspecified)	inconclusive: 39.8 µM [inhibitor, single point]
Cc1nc(C(C)C)sc1C(=O)N[C@H]1C[C@H]2CN(C)CCN2C1	inconclusive: 44.7 µM [inhibitor, partial curve, poor fit]
CC(C)N1C(=O)C2(CCCC2)C1C(=O)NCc1ccc(N2CCOCC2)cc1 (stereo unspecified)	inconclusive: 14.1 µM [inhibitor, partial curve]
O=S(=O)(c1cccc(F)c1)N1CCCC(Cn2c(C3CC3)nc3cccnc32)C1 (stereo unspecified)	inactive
CN(C)C(=O)N1CCCN(c2nc3ncccc3o2)CC1	inactive
Cc1ccc(Nc2ccnc(N3CCCC3C(=O)NCc3cccs3)n2)cc1 (stereo unspecified)	inconclusive: 39.8 µM [inhibitor, partial curve, poor fit]
Cc1cccc(CS(=O)(=O)c2ncc(Cl)c(C(=O)Nc3nnc(C(C)C)s3)n2)c1	inconclusive: 39.8 µM [inhibitor, single point]
COc1ccc(C2=CC(c3cc(Br)ccc3F)n3c(nc4ccccc43)N2)cc1 (stereo unspecified)	inconclusive: 39.8 µM [inhibitor, single point]
